According to paper PMC4336329 (PLoS ONE, 2015):
In all, about 310,000 compounds went through this assay and about 14,000 (4.5%) showed an effect of 50% or more. The effect is printed as a negative number. Some of the results follow.

biological target: human ether-à-go-go-related gene (hERG) potassium channel (human, UniProt Q12809); test: primary screen, population patch clamp on CHO cells stably expressing hERG
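Also: peak tail current of the secondary pulse compared with the same well before compound.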

Chain of human ether-à-go-go-related gene (hERG) potassium channel (Q12809 whole entry, looked up): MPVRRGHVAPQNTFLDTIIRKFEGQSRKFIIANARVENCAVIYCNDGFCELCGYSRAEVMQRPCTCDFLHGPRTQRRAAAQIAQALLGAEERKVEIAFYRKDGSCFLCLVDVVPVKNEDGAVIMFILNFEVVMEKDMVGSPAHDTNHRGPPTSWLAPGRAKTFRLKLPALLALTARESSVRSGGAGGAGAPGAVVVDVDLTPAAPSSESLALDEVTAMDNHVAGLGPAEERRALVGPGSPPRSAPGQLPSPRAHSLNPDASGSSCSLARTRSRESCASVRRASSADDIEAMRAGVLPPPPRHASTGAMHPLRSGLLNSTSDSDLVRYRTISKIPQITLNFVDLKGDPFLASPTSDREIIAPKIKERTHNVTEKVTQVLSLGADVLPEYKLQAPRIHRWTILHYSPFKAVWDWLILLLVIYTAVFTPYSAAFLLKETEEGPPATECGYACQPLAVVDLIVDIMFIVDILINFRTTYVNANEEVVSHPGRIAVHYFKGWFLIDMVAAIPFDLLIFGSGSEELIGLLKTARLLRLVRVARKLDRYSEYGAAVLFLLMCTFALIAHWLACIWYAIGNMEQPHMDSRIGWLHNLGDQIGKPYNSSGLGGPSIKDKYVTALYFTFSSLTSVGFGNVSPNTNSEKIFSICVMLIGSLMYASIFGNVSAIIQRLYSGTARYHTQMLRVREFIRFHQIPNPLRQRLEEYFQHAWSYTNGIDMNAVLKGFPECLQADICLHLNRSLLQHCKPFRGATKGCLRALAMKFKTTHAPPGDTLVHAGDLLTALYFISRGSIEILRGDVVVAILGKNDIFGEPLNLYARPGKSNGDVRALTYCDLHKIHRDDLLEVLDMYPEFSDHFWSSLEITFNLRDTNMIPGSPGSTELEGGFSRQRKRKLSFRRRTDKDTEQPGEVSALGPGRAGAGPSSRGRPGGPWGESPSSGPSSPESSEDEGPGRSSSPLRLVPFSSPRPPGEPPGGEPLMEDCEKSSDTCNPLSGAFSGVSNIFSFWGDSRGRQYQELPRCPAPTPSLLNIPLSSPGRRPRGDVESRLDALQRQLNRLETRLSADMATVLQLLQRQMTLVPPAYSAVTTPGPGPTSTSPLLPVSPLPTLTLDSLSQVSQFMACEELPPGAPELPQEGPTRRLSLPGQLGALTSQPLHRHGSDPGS

| SMILES | hERG current change (%, negative = inhibition) at 10uM |
| --- | --- |
| O=C(NC1CC1)C1C2C3C4CC5C3C5C4C12 (centres unmarked) | 2.43% |
| Cc1cc(C)n(-c2ccc(C(=O)OCC(=O)NCc3ccco3)cc2)n1 | 0.144% |
| O=C(CNS(=O)(=O)c1cccs1)NCc1ccccc1 | 12.6% |
| O=C(c1ccc(-n2cncn2)c([N+](=O)[O-])c1)N1CCN(S(=O)(=O)c2ccccc2Br)CC1 | -70.3% |
| NC(=S)N=Nc1c(O)n(CCCl)c2ccc(Cl)cc12 | 9.1% |
| Cc1ccc(S(=O)(=O)N2CCN(Cc3csc(C)n3)CC2)cc1 | 6.87% |
| Cc1cccc(CSc2ccc3nnc(-c4ccccn4)n3n2)c1 | -75.7% |
| COc1cccc2[nH]c3c(=O)n(CCN(C)C)cnc3c12 | -7.55% |
| CC(C(=O)Nc1ccc(C#N)cc1)N(C)CC(=O)Nc1cccc(F)c1 (centres unmarked) | -64.7% |
| COC(=O)NC(C)N1C(=O)C2C3C=CC(C3)C2C1=O (centres unmarked) | 5.08% |
| O=S(=O)(c1ccc(F)cc1)N1CCN(S(=O)(=O)c2cccs2)CC1 | 2.81% |
| CN1CCN(C(=S)SCC(=O)Nc2ccc(Cl)cc2C(=O)c2ccccc2)CC1 | -29.8% |
| Cc1cccc2sc(NNC(=O)C3=COCCO3)nc12 | -24.1% |
| Cc1ccc2c3c1C(=O)C(=O)N3C(C)(C)CC2C (centres unmarked) | -28.4% |
| O=C(CCN1C(=O)c2ccccc2C1=O)NCc1ccc(Cl)cc1 | -16.9% |
| Cc1cccc(-c2nc(S(=O)(=O)c3ccccc3)c(N3CCOCC3)o2)c1 | -25.4% |
| Cc1cc(=O)[nH]c2n[nH]c(-c3ccccc3)c12 | 4.19% |
| CN1CCc2c(sc3c2C(=O)NC(c2cccs2)N3)C1 (centres unmarked) | -16.7% |
| CN(CC(=O)NCC1CCCO1)S(=O)(=O)c1cc(Cl)ccc1Cl (centres unmarked) | -0.783% |

| SMILES | hERG current change (%, negative = inhibition) at 10uM |
| --- | --- |
| Cn1c(=O)c2nc(Cl)c(-c3ccccc3)nc2n(C)c1=O | -3.88% |
| COc1ccc(CNC(=O)CSc2nnc(C3CC3)n2C2CC2)cc1 | -9.26% |
| Cc1ccc(S(=O)(=O)N2CCN(C(=O)COC(=O)Cc3cccc(C(F)(F)F)c3)CC2)c(C)c1 | 5.7% |
| Nc1nccnc1C(=O)OCC(=O)c1ccc[nH]1 | -0.119% |
| COc1cc(NC(=O)c2cccnc2Sc2ccc(Cl)cc2)cc(OC)c1OC | 11.7% |
| Cc1cc(C)n2nc(SC(C)C(=O)NC3CCCCC3C)nc2n1 (centres unmarked) | -11.2% |
| COC(=O)C1=C(C)Nc2nnnn2C1c1cccs1 (centres unmarked) | -4.4% |
| CCOc1ccc(C2/C(=C(/O)c3ccc4c(c3)CC(C)O4)C(=O)C(=O)N2CCCn2ccnc2)cc1 (centres unmarked) | 6.06% |
| O=C(CC(=O)NCc1ccccc1)NCc1ccccc1 | 12.1% |
| O=C(c1oc(=O)c2ccccc2c1-c1ccccc1)N1CCN(C2CCCCC2)CC1 | -61.6% |
| O=C(NCCc1ccc(Cl)cc1)C1CCC(CNc2c(N3CCCCC3)c(=O)c2=O)CC1 (centres unmarked) | -15.3% |
| Cc1ccc(OCCCCN2CCCCC2)c(Br)c1.O=C(O)C(=O)O | -62.6% |
| C[C@@H](CN=[N+]=[N-])CN1CC[C@H](O)CCC1=O | 7.09% |
| CC(=O)N(C)c1ccc(NC(=O)Nc2ccc(Cl)cc2)cc1 | -7.31% |
| COC(=O)C1CCN(C(=O)COC(=O)CSc2ccc(C(N)=O)cc2[N+](=O)[O-])CC1 | 8.66% |
| CCc1nc(N2CCC3(CC2)OCCO3)c2nnn(Cc3ccccc3Cl)c2n1 | -8.52% |
| O=C(CN1CCN(C(=O)C2COc3ccccc3O2)CC1)Nc1ccc(F)cc1 (centres unmarked) | -75.7% |
| Cc1cc(=O)oc2c(C)c(OCC(=O)N3CCC(C(=O)O)(c4ccccc4)CC3)ccc12 | 20% |
| C[C@H](NC(=O)C1CCN(S(=O)(=O)c2ccccc2)CC1)C(=O)NCc1ccco1 | 25.5% |

| SMILES | hERG current change (%, negative = inhibition) at 10uM |
| --- | --- |
| COc1cc(C(=O)NCC(c2ccc(F)cc2)N2CCOCC2)ccc1OCc1ccccc1Cl (centres unmarked) | -40.9% |
| Cc1ccc(S(=O)(=O)NCC(=O)N(CC2CCCO2)C(C(=O)NC2CCCC2)C(C)C)cc1 (centres unmarked) | -1.47% |
| O=C(Nc1cccc(NC(=O)c2ccco2)c1)c1cnccn1 | -11.2% |
| Cc1ccccc1NC(=O)Cn1nc(-c2ccc(Cl)s2)ccc1=O | 13.6% |
| CCn1c2ccccc2c2cc(N=C3SC(CC(=O)Nc4ccccc4OC)C(=O)N3C)ccc21 (centres unmarked) | 8.15% |
| CCCCCCCCCCCCN1[C@@H](CC(=O)O)c2cc(F)ccc2S1(=O)=O | -4.69% |
| COc1ccc(OC)c(CN2CCN(CC(=O)Nc3ccccc3C(=O)NC3CC3)CC2)c1 | -82.5% |
| Cc1ccc(Cn2nc(C)c(C(=O)NCC(c3cccs3)N3CCOCC3)c2Cl)cc1 (centres unmarked) | -16.4% |
| Cc1cc(C)c2c(n1)sc1c(-c3ccccc3)c(C#N)c(N)nc12 | -6.52% |
| Cc1ccc(C(C(=O)NC2CCCC2)N2CCCCC2)cc1 (centres unmarked) | -9.12% |
| Cl.O=C([C@@H]1Cc2ccccc2CN1)N1CCN(Cc2ccccc2)CC1 | -31.7% |
| CCOc1ccc(NCc2cccn2-c2nnc(N3CCC(C(=O)NCCCN4CC(C)CC(C)C4)CC3)s2)cc1 (centres unmarked) | -66.2% |
| O=c1[nH]c2ccc(S(=O)(=O)N3CCC(Cc4ccccc4)CC3)cc2o1 | 13.9% |
| Fc1cc(Br)ccc1NC(=S)Nc1cccnc1 | 0.43% |
| CCCn1nnnc1-c1cc(Cl)cc(Cl)c1 | -20.9% |
| COc1ccc(N2CCC(N3CCN(C)C(CCO)C3)CC2)cc1 (centres unmarked) | 10.2% |
| O=C(NC(=Nc1nc2ccccc2o1)NC(=O)c1ccccc1)c1ccccc1 | 22.5% |
| CCN1C(=O)[C@H]2[C@@H](c3ccc(C)cc3)N3C(=O)N(c4cccc(Br)c4)C(=O)[C@@]3(CC(C)C)[C@H]2C1=O | 1.34% |
